# Results: the supplement of paper PMC11417369
# The other results are listed elsewhere or left out.
# Test system: PfHDP1 homeodomain (GST-tagged)
# Test: gcPBM binding intensity (ln(normalized median fluorescence intensity)); higher = stronger DNA binding
# Summary of the method: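 GST-fused DNA-binding domains of P. falciparum, expressed in E. coli, were applied at about 25 μg on average for 1 h to an Agilent 4 × 180k array of primer-extended double-stranded 36-bp intergenic genomic probes and negative controls. Binding intensity is the highest Masliner-normalised natural-log median intensity across replicate spots of either probe orientation, measured with Alexa488 anti-GST antibody and a 488 nm scan.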
row,Sequence,gcPBM binding intensity (ln)
1,ACAGAGCTTTAAATACGTACATAATATATATTAAAT [XGTACX_site8221],6.51
2,TTTAAAAAATGTTATATTATATAATTAAAAAAAAAA [CACACA_negctrl_site1509],6.4
3,TATTGATTTAGAAACACACACTCGAAGATGTTTAAC [CACACA_site1129],6.36
4,TTTTGTAGTTTATAAATAAAAGAGAATATGGTGCTT [CACACA_negctrl_site413],6.52
5,TAAATATTATTTCATAGTACTTTTATTATTGATATA [XGTACX_site5566],6.21
6,TAAATAAATATATATACACACATATATATATATATA [CACACA_site598],9.3
7,ATATATATAAAACACACACACAAAAAAAATAAAGAC [CACACA_site117],7.9
8,TGATTTCCAGGTTATTGTACAAAATTAATTTTCGAA [XGTACX_site2491],6.6
9,AAAAGTTTTATTTAAATGAATTAATCTTTACTATAT [CACACA_negctrl_site282],5.87
10,CAATTTATAAAGAAAACACACATATACATATATACA [CACACA_site1260],6.36
11,TATTAAACAAATTATGCAAAAATAAATCAATATGTT [CACACA_negctrl_site171],7.09
12,TTAGGAAGCTCACAAAATAAAGTGAAAAGAAGAAAA [XGTACX_negctrl_site572],6.45
13,ATTATTTTATAATTCACACATAAATAAAAAAAAAAT [CACACA_site5290],6.2
14,AAATATACAAAATATACACACATATTTATTTATGAT [CACACA_site2051],6.53
15,TATTTTCATTTGCGCGCACACAATAATAATTTTTGG [CACACA_site3525],8.28
16,TAAAAAATATAAATGACACACACTTAAAAACAAAGA [CACACA_site671],6.83
17,TATAAATTAATGACATGTACATAAAAGTATAGATGT [XGTACX_site6534],6.66
18,AACAATTATTTATCTACACACTTTTATGTTATTTAC [CACACA_site9],6.7
19,TAATGTATATGTAAATGTACATGTATATTATTTAAA [XGTACX_site1840],6.34

row,Sequence,gcPBM binding intensity (ln)
1,AAGATATTTGTATAATGTACAAAACTATATAAAACT [XGTACX_site1433],6.47
2,ATCAAAGATAAATTTACACACATATATATATATATA [CACACA_site2969],9.28
3,AAAATTAAAATATATACACACATATATATATTAAAT [CACACA_site4419],6.25
4,TCTTCCCAAATAAAGTGTACATAAATACGAATAATA [XGTACX_site4363],6.65
5,TTAAATTTTTTTTTGTGTACGAAAAACAGAAAAAAT [XGTACX_site8625],6.6
6,ATATATATATACATATGTACATATAAAATAATTTTG [XGTACX_site3731],8.53
7,TATGTGTATGGGAATGCATGTAAATATGTACATATA [TGCATGCA_site737],7.43
8,TTGTTCCACAAAAATTTAGTCAAAAAAAAATAAAAA [TGCATGCA_negctrl_site546],6.25
9,AATGAATAACAATACTATATGATTTTTAATACATTA [XGTACX_negctrl_site42],5.87
10,ACAAAAAAAAAAATAACACACATGGGGGTGTATAAA [CACACA_site3797],6.93
11,AATACAATATAGTGAAAAATAATTAAATACAATAAG [XGTACX_negctrl_site161],6.64
12,CGTAAACAATTATGATGTACATAAAATATATATATA [XGTACX_site2705],8.39
13,TCTATTCATTTTGAAGGTACACATTTCTTTATAATA [XGTACX_site6218],6.35
14,GTATTAGATAAATACACACACAAGCATATATTTTTA [CACACA_site3431],6.56
15,AATAAATATATAAATACACACAAACATACATATATA [CACACA_site9340],6.96
16,AATATATCATTATATAAACACACAATATGTTTTTTA [CACACA_site9260],6.22
17,AAAAATATATATATATATATATATATAAGGAATATA [XGTACX_negctrl_site450],7.35
18,AAAACACATACTATATGTACATATAATAATTTATAT [XGTACX_site4525],6.47
19,AAGAAAAAAAAAAAAAAAAAAAAAAAAAAAAAAAAA [TGCATGCA_negctrl_site263],6.24

row,Sequence,gcPBM binding intensity (ln)
1,TTCTGTATATAGTGTGCACACAATTAAAAAAAAAAA [CACACA_site8400],10.8
2,ATTATAAATAAAATATGTACATATGTATAAATACAT [XGTACX_site4002],6.39
3,TATATATATATATATATATATATTTTTATTATATAT [XGTACX_negctrl_site89],9.39
4,TTTATCCTTCTTTTGAGTACTCAAAGAGACCTATAA [XGTACX_site8050],7.04
5,AAAAAAAACAGACACACACACAAATATTTATATATC [CACACA_site6342],6.72
6,ATTATAAATATAAATATAAATATATATTGTTCCGCA [TGCATGCA_negctrl_site470],5.96
7,TTGCACTCGTAAAAAGCACACATATAAAAACATTTA [CACACA_site7997],6.92
8,TTAAAAATGTTATAATGTACATATAATATTTTATGA [XGTACX_site5954],6.37
9,AAAAAAAATCAGACAGGTACACATTCCATGTTCAAA [XGTACX_site5380],6.15
10,CATTAATATATATATAGTACATATACACCTTCATTA [XGTACX_site8473],6.58
11,ATATATTATATTTAAGTGCATTAATTAAAATGCTTA [GTGCAC_site9403],9.6
12,TAAGAATACGAAAGGTGTACACTGTGGAGACTTCAA [XGTACX_site2619],6.86
13,AAAATAAATATAAAATGTACTTATATATATATATAT [XGTACX_site7803],9.12
14,TATGAAGTGCACAATACACACTAATTCTATATAAAT [CACACA_site7269],10.3
15,CAATTAAAAAATAATACATGCATATAAATAGATATT [TGCATGCA_site427],6.3
16,ATAATTAAATAAAAAAGTACACATACATCATAATGC [XGTACX_site7656],6.61
17,TATAATATATATGTAACACACAAAAGTTATATACTT [CACACA_site2868],6.39
18,TATATAATAACATATGCATGCAAGTAATATAACCAA [TGCATGCA_site324],7.29
